Reference: publication PMC6130078
No constants are given. Whether binding was seen depends on the method and setting. Binding seen in cells or lysates may run through a third protein. Some entries that bind do so weakly or less than the wild type. For some assays here: Tags and fused reporters may be left off the sequences shown.

The chains behind the UniProt entries cited, without tags or fusion partners. Residues count along the entry.
UniProt O60260: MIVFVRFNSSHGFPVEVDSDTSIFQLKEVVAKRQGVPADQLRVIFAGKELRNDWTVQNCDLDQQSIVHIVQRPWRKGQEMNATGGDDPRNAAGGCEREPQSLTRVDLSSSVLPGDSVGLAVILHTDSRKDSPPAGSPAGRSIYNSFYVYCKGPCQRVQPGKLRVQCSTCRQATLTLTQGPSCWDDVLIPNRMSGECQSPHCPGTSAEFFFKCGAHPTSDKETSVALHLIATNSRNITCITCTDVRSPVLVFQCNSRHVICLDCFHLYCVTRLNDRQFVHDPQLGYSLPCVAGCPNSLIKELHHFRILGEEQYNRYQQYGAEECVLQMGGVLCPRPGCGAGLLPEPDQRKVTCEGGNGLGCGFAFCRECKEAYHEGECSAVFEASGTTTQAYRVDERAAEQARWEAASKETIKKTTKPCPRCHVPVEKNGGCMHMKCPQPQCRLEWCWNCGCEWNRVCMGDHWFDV
UniProt P19491, residues 22-883: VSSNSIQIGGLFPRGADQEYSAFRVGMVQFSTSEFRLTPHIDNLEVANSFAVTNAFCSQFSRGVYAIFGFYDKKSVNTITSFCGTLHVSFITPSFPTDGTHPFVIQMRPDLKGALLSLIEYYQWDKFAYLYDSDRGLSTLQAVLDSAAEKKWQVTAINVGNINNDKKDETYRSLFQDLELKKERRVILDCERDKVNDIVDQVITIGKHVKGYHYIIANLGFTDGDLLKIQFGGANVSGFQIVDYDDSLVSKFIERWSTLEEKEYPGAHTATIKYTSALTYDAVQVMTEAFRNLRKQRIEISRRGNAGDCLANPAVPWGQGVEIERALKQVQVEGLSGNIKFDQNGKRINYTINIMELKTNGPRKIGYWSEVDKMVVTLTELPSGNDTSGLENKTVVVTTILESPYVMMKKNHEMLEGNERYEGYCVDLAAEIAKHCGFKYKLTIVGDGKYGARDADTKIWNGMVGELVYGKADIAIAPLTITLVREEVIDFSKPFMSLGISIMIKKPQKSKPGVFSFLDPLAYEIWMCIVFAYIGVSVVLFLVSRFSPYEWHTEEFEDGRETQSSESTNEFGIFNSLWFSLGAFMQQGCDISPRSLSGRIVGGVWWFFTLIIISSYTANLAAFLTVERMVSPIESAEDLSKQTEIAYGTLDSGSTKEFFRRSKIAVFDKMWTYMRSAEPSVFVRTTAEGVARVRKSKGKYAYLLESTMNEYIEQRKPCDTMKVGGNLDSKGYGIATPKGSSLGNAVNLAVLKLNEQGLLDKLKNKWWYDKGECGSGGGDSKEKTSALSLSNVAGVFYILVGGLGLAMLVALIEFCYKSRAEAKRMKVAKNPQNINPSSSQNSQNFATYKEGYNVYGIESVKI
UniProt P19490, residues 19-907: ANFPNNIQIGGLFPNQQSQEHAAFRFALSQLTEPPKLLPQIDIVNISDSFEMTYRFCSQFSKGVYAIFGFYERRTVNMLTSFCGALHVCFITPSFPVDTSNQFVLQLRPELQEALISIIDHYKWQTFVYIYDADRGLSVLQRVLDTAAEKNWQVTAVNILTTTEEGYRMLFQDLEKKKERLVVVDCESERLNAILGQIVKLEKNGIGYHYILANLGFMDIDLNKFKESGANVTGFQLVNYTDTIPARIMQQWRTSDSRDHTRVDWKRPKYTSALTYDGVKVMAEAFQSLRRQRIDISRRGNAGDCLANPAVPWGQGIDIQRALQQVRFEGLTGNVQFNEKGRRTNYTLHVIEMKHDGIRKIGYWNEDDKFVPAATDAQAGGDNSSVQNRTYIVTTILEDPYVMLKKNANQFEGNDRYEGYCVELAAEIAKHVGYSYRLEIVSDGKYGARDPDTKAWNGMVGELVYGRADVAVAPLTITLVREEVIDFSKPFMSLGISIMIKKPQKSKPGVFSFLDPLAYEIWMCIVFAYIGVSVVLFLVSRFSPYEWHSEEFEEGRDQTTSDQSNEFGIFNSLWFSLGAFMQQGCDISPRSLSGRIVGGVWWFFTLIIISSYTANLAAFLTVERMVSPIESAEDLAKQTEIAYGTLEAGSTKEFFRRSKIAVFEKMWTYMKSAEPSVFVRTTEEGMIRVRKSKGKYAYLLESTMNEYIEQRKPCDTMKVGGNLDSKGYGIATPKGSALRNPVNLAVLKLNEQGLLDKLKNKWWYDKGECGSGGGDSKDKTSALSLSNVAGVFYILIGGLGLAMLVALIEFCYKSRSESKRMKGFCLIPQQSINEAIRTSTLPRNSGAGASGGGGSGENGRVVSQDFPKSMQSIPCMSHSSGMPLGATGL
UniProt Q00960, residues 27-1482: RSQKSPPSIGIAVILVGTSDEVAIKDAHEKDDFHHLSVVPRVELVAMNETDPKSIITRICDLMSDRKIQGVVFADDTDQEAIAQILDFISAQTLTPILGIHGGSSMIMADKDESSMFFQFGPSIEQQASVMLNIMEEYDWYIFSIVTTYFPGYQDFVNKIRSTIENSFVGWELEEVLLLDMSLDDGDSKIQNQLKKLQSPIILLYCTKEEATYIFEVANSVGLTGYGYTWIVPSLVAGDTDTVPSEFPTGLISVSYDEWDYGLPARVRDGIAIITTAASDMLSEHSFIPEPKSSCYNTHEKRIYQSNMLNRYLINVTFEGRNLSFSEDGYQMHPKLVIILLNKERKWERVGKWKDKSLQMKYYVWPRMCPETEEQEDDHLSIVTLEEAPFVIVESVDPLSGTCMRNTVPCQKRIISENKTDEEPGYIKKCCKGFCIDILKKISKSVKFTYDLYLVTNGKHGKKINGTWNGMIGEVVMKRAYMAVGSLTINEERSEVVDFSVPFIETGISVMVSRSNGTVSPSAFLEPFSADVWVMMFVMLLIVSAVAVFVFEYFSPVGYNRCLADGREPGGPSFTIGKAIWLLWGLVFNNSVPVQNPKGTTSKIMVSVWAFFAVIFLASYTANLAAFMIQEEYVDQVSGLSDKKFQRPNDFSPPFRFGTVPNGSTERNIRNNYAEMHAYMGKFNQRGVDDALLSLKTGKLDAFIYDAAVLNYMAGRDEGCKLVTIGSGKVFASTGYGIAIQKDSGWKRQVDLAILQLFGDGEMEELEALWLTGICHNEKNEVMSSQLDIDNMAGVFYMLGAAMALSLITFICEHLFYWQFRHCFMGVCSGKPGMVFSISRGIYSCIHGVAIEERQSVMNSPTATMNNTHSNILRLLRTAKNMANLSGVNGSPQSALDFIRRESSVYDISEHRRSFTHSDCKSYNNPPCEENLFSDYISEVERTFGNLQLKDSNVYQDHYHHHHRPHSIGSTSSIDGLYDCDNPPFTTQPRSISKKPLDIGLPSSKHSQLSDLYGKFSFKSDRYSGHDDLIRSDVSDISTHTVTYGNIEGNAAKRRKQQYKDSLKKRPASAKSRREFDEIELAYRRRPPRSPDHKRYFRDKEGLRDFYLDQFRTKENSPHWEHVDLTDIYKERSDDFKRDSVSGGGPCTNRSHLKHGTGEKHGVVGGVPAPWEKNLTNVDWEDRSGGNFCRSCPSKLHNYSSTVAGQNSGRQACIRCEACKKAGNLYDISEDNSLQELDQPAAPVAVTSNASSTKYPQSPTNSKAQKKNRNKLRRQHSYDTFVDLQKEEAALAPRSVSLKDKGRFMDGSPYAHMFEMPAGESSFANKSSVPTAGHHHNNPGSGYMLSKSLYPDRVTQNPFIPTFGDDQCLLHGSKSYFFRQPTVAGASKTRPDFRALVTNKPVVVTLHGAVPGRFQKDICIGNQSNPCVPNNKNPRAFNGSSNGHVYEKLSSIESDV

Experiments:
[1] = target: Myc-Parkin (UniProt O60260); assay: co-IP; Myc IP (Dynabeads with anti-Myc) from lysates of HEK293T cells co-transfected with Myc-Parkin and pCI-SEP-GluA1/-GluA2/-GluN1/-GluN2B; lysis buffer 50 mM Tris-base, 150 mM NaCl, 1% Triton X-100, 0.5% deoxycholic acid; 4 °C, 2-4 h; blots for Myc and GFP
[2] = target: T1, GFP-Homer1 (UniProt Q9Z214); assay: co-IP; Homer1 IP (Dynabeads with anti-Homer1) from lysates of HEK293T cells co-transfected with GFP-Homer1 and GFP-Parkin WT or mutants; lysis buffer 50 mM Tris-base, 150 mM NaCl, 1% Triton X-100, 0.5% deoxycholic acid; 4 °C, 2-4 h; blots for Parkin and Homer1
T1 sequence: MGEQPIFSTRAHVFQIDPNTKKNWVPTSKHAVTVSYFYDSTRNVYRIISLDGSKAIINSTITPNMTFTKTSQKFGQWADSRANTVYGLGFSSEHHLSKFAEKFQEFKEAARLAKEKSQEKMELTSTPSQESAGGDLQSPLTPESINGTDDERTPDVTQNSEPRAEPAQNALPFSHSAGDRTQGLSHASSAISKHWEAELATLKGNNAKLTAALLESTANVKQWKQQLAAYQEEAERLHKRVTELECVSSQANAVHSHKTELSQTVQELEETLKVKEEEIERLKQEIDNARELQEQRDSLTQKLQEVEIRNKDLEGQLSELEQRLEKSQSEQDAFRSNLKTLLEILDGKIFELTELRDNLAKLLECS

Substance | binding [1] | binding [2]
GFP-GluN1 (pCI-SEP-GluN1) (from UniProt P35439 19-938) (receptor) | binds | –
GFP-GluA2 (pCI-SEP-GluA2) (from UniProt P19491 22-883) (receptor) | no binding | –
GFP-GluA1 (pCI-SEP-GluA1) (from UniProt P19490 19-907) (receptor) | no binding | –

Second part, the substance after the results:

binding [1] | binding [2] | Substance
no binding | – | GFP-GluN2B (pCI-SEP-GluN2B) (from UniProt Q00960 27-1482) (receptor)
– | binds | GFP-Parkin WT (from UniProt O60260 1-465) (enzyme)
